Experimental data as given in PMC10215715.
Results are given in words; binding and its absence hold for the method and conditions named. In cells and extracts the contact can be indirect. Some binding calls cover weakened binding; strength is not graded here.

The chains behind the UniProt entries cited, without tags or fusion partners. Where a name states a change or a piece, a line headed by the entry shows the natural chain unless it says otherwise.
UniProt Q9Z148: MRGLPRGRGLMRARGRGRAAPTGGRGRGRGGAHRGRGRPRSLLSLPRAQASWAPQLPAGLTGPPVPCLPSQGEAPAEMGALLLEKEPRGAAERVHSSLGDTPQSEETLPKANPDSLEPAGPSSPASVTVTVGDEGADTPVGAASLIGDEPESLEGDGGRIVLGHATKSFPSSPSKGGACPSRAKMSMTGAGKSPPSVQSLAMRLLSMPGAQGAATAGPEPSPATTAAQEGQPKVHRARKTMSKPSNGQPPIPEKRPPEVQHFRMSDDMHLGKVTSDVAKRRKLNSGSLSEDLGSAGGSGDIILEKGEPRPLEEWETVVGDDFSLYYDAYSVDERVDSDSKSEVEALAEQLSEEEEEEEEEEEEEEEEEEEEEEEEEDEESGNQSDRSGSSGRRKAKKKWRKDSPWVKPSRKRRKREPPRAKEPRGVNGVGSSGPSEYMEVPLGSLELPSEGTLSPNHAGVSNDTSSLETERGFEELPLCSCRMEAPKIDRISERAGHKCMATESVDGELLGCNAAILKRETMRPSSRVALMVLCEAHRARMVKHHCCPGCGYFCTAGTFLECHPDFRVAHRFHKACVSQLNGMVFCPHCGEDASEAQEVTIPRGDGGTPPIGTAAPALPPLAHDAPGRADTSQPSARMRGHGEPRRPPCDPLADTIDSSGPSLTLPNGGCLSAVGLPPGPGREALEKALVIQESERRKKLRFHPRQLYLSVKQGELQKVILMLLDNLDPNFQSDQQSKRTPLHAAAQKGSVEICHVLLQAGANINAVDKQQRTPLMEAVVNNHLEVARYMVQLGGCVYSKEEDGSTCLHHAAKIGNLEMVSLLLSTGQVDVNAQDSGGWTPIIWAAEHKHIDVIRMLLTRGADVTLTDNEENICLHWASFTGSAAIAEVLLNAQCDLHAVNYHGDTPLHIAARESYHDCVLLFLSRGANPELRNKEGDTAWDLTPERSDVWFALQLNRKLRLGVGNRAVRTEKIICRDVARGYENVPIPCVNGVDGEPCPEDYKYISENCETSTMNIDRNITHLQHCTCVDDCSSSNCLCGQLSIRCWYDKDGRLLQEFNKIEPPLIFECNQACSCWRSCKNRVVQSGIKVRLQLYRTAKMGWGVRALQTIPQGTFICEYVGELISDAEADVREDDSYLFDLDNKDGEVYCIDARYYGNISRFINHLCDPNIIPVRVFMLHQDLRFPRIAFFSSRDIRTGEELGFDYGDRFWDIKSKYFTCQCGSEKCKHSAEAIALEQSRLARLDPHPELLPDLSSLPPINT
UniProt Q5DW34: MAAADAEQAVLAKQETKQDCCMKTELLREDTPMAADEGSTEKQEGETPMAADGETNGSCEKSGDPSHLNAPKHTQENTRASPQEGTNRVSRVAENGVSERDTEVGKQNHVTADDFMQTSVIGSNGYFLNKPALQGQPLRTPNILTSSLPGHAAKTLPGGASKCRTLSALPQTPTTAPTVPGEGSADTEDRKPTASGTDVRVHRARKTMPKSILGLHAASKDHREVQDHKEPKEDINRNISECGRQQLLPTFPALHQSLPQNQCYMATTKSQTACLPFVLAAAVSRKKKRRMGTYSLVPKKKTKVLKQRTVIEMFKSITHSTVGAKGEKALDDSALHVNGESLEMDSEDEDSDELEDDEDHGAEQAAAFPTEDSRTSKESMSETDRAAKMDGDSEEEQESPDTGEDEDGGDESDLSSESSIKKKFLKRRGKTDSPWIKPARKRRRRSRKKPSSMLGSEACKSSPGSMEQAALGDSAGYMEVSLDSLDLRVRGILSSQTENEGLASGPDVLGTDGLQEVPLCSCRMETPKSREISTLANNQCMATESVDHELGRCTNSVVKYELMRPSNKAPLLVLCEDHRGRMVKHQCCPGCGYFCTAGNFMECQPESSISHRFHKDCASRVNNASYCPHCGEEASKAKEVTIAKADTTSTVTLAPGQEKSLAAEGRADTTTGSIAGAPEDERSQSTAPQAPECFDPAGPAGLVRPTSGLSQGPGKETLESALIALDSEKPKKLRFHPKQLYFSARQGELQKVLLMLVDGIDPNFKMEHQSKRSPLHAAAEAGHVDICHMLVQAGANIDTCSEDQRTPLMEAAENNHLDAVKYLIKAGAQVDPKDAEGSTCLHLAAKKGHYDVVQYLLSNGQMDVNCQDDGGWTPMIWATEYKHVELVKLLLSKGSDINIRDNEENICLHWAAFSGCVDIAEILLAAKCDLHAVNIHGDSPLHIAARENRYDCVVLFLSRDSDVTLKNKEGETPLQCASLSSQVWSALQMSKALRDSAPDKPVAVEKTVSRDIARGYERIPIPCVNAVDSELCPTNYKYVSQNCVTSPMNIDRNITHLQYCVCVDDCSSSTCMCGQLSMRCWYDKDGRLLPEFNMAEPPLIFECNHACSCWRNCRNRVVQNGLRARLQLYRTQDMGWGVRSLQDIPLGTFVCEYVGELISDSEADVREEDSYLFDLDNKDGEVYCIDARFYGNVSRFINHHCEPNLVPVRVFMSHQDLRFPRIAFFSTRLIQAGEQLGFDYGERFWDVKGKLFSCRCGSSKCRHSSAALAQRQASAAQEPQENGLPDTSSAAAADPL
UniProt P42230: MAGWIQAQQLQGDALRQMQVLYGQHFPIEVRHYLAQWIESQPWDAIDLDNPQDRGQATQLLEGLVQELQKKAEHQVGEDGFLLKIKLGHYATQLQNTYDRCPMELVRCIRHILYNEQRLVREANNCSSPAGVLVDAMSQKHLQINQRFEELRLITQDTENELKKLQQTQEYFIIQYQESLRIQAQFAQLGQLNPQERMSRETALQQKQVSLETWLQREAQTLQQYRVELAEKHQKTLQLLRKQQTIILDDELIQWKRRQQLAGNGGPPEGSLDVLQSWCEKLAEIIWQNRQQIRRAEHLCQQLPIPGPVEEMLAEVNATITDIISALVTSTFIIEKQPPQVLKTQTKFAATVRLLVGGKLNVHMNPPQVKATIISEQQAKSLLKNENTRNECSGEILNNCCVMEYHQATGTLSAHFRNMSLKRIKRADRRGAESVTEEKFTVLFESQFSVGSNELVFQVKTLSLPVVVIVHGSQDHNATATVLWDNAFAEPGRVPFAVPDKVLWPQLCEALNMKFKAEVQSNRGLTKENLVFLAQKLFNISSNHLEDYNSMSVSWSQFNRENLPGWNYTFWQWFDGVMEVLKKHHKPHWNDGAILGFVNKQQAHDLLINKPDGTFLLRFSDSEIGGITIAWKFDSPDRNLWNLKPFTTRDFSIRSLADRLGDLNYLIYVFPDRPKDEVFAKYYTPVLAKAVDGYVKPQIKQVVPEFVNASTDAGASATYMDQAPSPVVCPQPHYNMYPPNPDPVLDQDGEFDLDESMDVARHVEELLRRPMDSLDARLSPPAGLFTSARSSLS
UniProt Q04207: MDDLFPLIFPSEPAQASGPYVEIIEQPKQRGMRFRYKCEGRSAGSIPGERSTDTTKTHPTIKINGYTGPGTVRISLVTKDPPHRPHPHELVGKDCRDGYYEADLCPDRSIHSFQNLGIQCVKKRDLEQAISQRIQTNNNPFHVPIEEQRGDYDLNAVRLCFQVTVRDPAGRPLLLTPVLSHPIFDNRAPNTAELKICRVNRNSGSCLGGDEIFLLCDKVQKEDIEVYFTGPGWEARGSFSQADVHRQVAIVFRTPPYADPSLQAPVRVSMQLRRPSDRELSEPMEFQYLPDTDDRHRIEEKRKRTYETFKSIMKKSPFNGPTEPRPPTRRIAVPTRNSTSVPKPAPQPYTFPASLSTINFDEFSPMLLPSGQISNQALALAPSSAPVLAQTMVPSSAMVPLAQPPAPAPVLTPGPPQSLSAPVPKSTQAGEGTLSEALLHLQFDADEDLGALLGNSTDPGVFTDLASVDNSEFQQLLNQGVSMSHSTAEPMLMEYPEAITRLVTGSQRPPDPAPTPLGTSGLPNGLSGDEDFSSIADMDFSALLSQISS

What was measured:
[1] = biological target: G9a (euchromatic histone methyltransferase 2; EHMT2) (mouse (endogenous in 3T3-L1)) (UniProt Q9Z148); assay: co-IP; cytosolic and nuclear extracts (300 μg) of 3T3-L1 adipocytes treated with 0.75 nM TNFα for 30 min; IP with anti-G9a antibody, immunoblot; endogenous proteins
[2] = biological target: G9a (euchromatic histone methyltransferase 2; EHMT2) (mouse (endogenous in 3T3-L1)) (UniProt Q9Z148); assay: co-IP; cytosolic and nuclear extracts (300 μg) of 3T3-L1 adipocytes treated with vehicle (0.1% BSA/PBS) for 30 min; IP with anti-G9a antibody, immunoblot; endogenous proteins
[3] = biological target: G9a (euchromatic histone methyltransferase 2; EHMT2) (mouse (endogenous in 3T3-L1)) (UniProt Q9Z148); assay: co-IP; whole-cell extracts (fresh or after one freeze-thaw cycle) of 3T3-L1 adipocytes treated with vehicle or 0.75 nM TNFα for 30 min; IP with anti-G9a antibody, Protein A beads, immunoblot; endogenous proteins
[4] = biological target: G9a-like protein (GLP; euchromatic histone methyltransferase 1; EHMT1) (mouse (endogenous in 3T3-L1)) (UniProt Q5DW34); assay: co-IP; nuclear extract (300 μg) of 3T3-L1 adipocytes treated with 0.75 nM TNFα for 30 min; IP with anti-GLP antibody, immunoblot; endogenous proteins
[5] = biological target: G9a-like protein (GLP; euchromatic histone methyltransferase 1; EHMT1) (mouse (endogenous in 3T3-L1)) (UniProt Q5DW34); assay: co-IP; nuclear extract (300 μg) of 3T3-L1 adipocytes treated with vehicle (0.1% BSA/PBS) for 30 min; IP with anti-GLP antibody, immunoblot; endogenous proteins

Row | Substance | binding [1] | binding [2] | binding [3] | binding [4] | binding [5]
1 | signal transducer and activator of transcription 5A (STAT5A) (from UniProt P42230 1-793) | no binding | no binding | no binding | – | –
2 | RelA (p65), the major functional subunit of NF-κB (from UniProt Q04207 1-549) | binds | no binding (condition: vehicle-treated cells (no TNFα)) | – | binds | no binding (condition: vehicle-treated cells (no TNFα))
3 | G9a-like protein (GLP; euchromatic histone methyltransferase 1; EHMT1) (from UniProt Q5DW34-1 1-1296) (enzyme) | – | – | binds | – | –
